Where a chain is given by its changes, count along the chain named. These are yes or no findings as the source states them, for the method shown. In cells and extracts the contact can be indirect. Some entries that bind do so weakly or less than the wild type. Tags and fused reporters may be left off the sequences shown.
T1: C-terminal FLAG-tagged human threonyl-tRNA synthetase-like protein (hThrRS-L-FLAG) (human) (UniProt A2RTX5)
T1 sequence: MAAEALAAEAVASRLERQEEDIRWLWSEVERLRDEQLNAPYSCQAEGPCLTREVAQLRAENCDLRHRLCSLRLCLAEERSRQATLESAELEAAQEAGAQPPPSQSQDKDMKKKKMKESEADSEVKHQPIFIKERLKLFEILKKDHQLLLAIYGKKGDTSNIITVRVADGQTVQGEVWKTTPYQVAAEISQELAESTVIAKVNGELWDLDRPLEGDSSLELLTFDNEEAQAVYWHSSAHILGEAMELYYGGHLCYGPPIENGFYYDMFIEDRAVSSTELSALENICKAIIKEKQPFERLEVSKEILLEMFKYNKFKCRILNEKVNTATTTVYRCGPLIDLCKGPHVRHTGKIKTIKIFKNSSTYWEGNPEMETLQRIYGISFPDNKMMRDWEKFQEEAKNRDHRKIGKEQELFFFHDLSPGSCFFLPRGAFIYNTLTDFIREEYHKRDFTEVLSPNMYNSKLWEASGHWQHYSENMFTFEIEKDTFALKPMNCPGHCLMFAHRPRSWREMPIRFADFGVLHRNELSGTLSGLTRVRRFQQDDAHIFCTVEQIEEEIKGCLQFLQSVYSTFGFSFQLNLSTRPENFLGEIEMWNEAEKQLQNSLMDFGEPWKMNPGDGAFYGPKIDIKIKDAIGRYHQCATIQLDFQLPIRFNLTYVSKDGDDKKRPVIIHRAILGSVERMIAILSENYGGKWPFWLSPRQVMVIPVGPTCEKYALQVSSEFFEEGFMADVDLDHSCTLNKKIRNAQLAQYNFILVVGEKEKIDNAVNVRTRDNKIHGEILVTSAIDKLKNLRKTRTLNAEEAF

T2: hThrRS-L-Y457D with a C-terminal FLAG tag (human) (UniProt A2RTX5)
T2 sequence: T1 sequence with Y457D

T3: hThrRS-L-Δ161-FLAG, hThrRS-L with TLN161 deleted, C-terminal FLAG tag (human) (UniProt A2RTX5)
T3 sequence: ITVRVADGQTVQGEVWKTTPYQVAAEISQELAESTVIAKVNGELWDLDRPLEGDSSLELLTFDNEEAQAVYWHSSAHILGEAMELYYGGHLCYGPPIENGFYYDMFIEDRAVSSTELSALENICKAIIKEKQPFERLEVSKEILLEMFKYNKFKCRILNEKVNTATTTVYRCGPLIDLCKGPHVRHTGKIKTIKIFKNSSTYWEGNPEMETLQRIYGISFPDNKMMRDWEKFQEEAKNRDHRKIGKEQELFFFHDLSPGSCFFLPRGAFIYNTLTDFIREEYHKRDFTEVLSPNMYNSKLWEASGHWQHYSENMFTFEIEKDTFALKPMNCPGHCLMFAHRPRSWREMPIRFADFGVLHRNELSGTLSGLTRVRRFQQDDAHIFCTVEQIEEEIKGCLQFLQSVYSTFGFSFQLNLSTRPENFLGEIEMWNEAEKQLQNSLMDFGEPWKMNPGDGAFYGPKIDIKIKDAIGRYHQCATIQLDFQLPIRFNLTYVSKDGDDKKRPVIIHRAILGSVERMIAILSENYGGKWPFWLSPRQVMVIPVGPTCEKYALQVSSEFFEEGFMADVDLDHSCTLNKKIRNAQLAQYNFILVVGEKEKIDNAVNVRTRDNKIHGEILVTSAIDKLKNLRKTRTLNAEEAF

B1: ArgRS, endogenous in human cells (enzyme, UniProt P54136 1-660)
chain: MDVLVSECSARLLQQEEEIKSLTAEIDRLKNCGCLGASPNLEQLQEENLKLKYRLNILRKSLQAERNKPTKNMINIISRLQEVFGHAIKAAYPDLENPPLLVTPSQQAKFGDYQCNSAMGISQMLKTKEQKVNPREIAENITKHLPDNECIEKVEIAGPGFINVHLRKDFVSEQLTSLLVNGVQLPALGENKKVIVDFSSPNIAKEMHVGHLRSTIIGESISRLFEFAGYDVLRLNHVGDWGTQFGMLIAHLQDKFPDYLTVSPPIGDLQVFYKESKKRFDTEEEFKKRAYQCVVLLQGKNPDITKAWKLICDVSRQELNKIYDALDVSLIERGESFYQDRMNDIVKEFEDRGFVQVDDGRKIVFVPGCSIPLTIVKSDGGYTYDTSDLAAIKQRLFEEKADMIIYVVDNGQSVHFQTIFAAAQMIGWYDPKVTRVFHAGFGVVLGEDKKKFKTRSGETVRLMDLLGEGLKRSMDKLKEKERDKVLTAEELNAAQTSVAYGCIKYADLSHNRLNDYIFSFDKMLDDRGNTAAYLLYAFTRIRSIARLANIDEEMLQKAARETKILLDHEKEWKLGRCILRFPEILQKILDDLFLHTLCDYIYELATAFTEFYDSCYCVEKDRQTGKILKVNMWRMLLCEAVAAVMAKGFDILGIKPVQRM
B2: native hThrRS, endogenous in HEK293T (enzyme, UniProt P26639 1-723)
chain: MFEEKASSPSGKMGGEEKPIGAGEEKQKEGGKKKNKEGSGDGGRAELNPWPEYIYTRLEMYNILKAEHDSILAEKAEKDSKPIKVTLPDGKQVDAESWKTTPYQIACGISQGLADNTVIAKVNNVVWDLDRPLEEDCTLELLKFEDEEAQAVYWHSSAHIMGEAMERVYGGCLCYGPPIENGFYYDMYLEEGGVSSNDFSSLEALCKKIIKEKQAFERLEVKKETLLAMFKYNKFKCRILNEKVNTPTTTVYRCGPLIDLCRGPHVRHTGKIKALKIHKNSSTYWEGKADMETLQRIYGISFPDPKMLKEWEKFQEEAKNRDHRKIGRDQELYFFHELSPGSCFFLPKGAYIYNALIEFIRSEYRKRGFQEVVTPNIFNSRLWMTSGHWQHYSENMFSFEVEKELFALKPMNCPGHCLMFDHRPRSWRELPLRLADFGVLHRNELSGALTGLTRVRRFQQDDAHIFCAMEQIEDEIKGCLDFLRTVYSVFGFSFKLNLSTRPEKFLGDIEVWDQAEKQLENSLNEFGEKWELNSGDGAFYGPKIDIQIKDAIGRYHQCATIQLDFQLPIRFNLTYVSHDGDDKKRPVIVHRAILGSVERMIAILTENYGGKWPFWLSPRQVMVVPVGPTCDEYAQKVRQQFHDAKFMADIDLDPGCTLNKKIRNAQLAQYNFILVVGEKEKISGTVNIRTRDNKVHGERTISETIERLQQLKEFRSKQAEEEF
B3: native p43 (AIMP1), endogenous in human cells (protein, UniProt Q12904-2 1-336)
chain: MLPAVAVSEPVVLRFMIFCRLLAKMANNDAVLKRLEQKGAEADQIIEYLKQQVSLLKEKAILQATLREEKKLRVENAKLKKEIEELKQELIQAEIQNGVKQIPFPSGTPLHANSMVSENVIQSTAVTTVSSGTKEQIKGGTGDEKKAKEKIEKKGEKKEKKQQSIAGSADSKPIDVSRLDLRIGCIITARKHPDADSLYVEEVDVGEIAPRTVVSGLVNHVPLEQMQNRMVILLCNLKPAKMRGVLSQAMVMCASSPEKIEILAPPNGSVPGDRITFDAFPGEPDKELNPKKKIWEQIQPDLHTNDECVATYKGVPFEVKGKGVCRAQTMSNSGIK

Target: T1, C-terminal FLAG-tagged human threonyl-tRNA synthetase-like protein (hThrRS-L-FLAG) (human)
Assay: co-IP; FLAG-tagged hThrRS-L or mutant overexpressed in HEK293T; IP with anti-FLAG, Dynabeads protein G, 4°C; endogenous partners detected by western blotting

Row | binding | Binder
1 | binds | B1
2 | binds | B2
3 | binds | B3

Target: T2, hThrRS-L-Y457D with a C-terminal FLAG tag (human)
Assay: as above

Row | binding | Binder
4 | binds | B1
5 | binds | B2
6 | binds | B3

Target: T3, hThrRS-L-Δ161-FLAG, hThrRS-L with TLN161 deleted, C-terminal FLAG tag (human)
Assay: as above

Row | binding | Binder
7 | no binding | B1
8 | binds | B2
9 | no binding | B3

From publication PMC6794377
